Experimental data: the supplement of paper PMC4967469

What was measured:
Test in all cases: Viability of human cancer cell lines after 72 h of drug (GDSC screen)
[1] = compound: N[C@@H](CSC(c1ccccc1)(c1ccccc1)c1ccccc1)C(=O)O [S-Trityl-L-cysteine]; settings: top dose 5.12 µM; top dose inferred
Procedure: (§1)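 Human cancer cell lines in 384-well plates, medium with 10% serum, drug for 72 h over a 256-fold dose range (nine 2-fold or five 4-fold steps up to the top dose). Adherent lines were fixed and stained with the nucleic acid dye Syto60, suspension lines read with resazurin; signal relative to control wells, capped at 0 and 100%. One two-parameter sigmoid per drug and line, fitted in a mixed model over all curves with the slope shared within a line.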

[2] = compound: C=CC(=O)Nc1cc(NC(=O)c2ccc(C)c(NC(=O)c3ccno3)c2)cc(C(F)(F)F)c1 [QL-XI-92]; settings: top dose 10.24 µM; top dose inferred
Procedure: as §1

[3] = compound: CCC1=C[C@@H]2CN(C1)Cc1c([nH]c3ccccc13)[C@@](C(=O)OC)(c1cc3c(cc1OC)N(C)[C@H]1[C@@](O)(C(=O)OC)[C@H](OC(C)=O)[C@]4(CC)C=CCN5CC[C@]31[C@@H]54)C2 [Vinorelbine]; settings: top dose 0.064 µM; top dose inferred
Procedure: as §1

[4] = compound: COc1cc2nccc(Oc3ccc(NC(=O)C4(C(=O)Nc5ccc(F)cc5)CC4)cc3)c2cc1OC [XL-184]; settings: top dose 5.12 µM; top dose inferred
Procedure: as §1

[5] = compound: N=C(N)NC(=N)NCCc1ccccc1 [Phenformin]; settings: top dose 4000 µM; top dose inferred
Procedure: as §1

[6] = compound: COc1cc2ncnc(Nc3cc(Br)c(O)c(Br)c3)c2cc1OC [WHI-P97]; settings: top dose 10.24 µM; top dose inferred
Procedure: as §1

[7] = compound: CNCc1ccc(-c2[nH]c3cc(F)cc4c3c2CCNC4=O)cc1 [AG-014699]; settings: top dose 5 µM; top dose inferred
Procedure: as §1

[8] = compound: O=c1cc(N2CCOCC2)oc2c(-c3cccc4c3sc3ccccc34)cccc12 [NU-7441]; settings: top dose 2 µM; top dose inferred
Procedure: as §1

[9] = compound: O=c1cc(CN2CCOCC2)occ1OCCCCCSc1ccnc2cc(C(F)(F)F)ccc12 [EHT 1864]; settings: top dose 10 µM; top dose inferred
Procedure: as §1

Cell Line | AUC [1] | IC50 [1] | AUC [2] | IC50 [2] | AUC [3] | IC50 [3] | AUC [4] | IC50 [4] | AUC [5] | IC50 [5] | AUC [6] | IC50 [6] | AUC [7] | IC50 [7] | AUC [8] | IC50 [8] | AUC [9] | IC50 [9]
NCI-H2196 (small cell lung carcinoma, adherent) | 0.956 | > 5.12 µM | 0.983 | > 10.2 µM | 0.904 | > 0.064 µM | 0.908 | > 5.12 µM | 0.446 | 177 µM | 0.984 | > 10.2 µM | – | – | – | – | – | –
SKM-1 (haematopoietic neoplasm, suspension) | 0.977 | > 5.12 µM | – | – | – | – | – | – | – | – | – | – | 0.923 | > 5 µM | 0.778 | 0.899 µM | 0.869 | > 10 µM
SNU-C2B (large intestine, adherent) | 0.713 | 1.57 µM | 0.977 | > 10.2 µM | – | – | 0.964 | > 5.12 µM | 0.476 | 210 µM | 0.933 | > 10.2 µM | 0.972 | > 5 µM | 0.969 | > 2 µM | – | –
SU-DHL-1 (anaplastic large cell lymphoma, suspension) | 0.996 | > 5.12 µM | 0.898 | 6.47 µM | 0.997 | > 0.064 µM | 0.997 | > 5.12 µM | 0.607 | 453 µM | 0.997 | > 10.2 µM | – | – | – | – | – | –
SW872 (soft tissue, adherent) | 0.675 | 0.932 µM | 0.988 | > 10.2 µM | 0.576 | 0.00631 µM | 0.965 | > 5.12 µM | 0.983 | > 4000 µM | 0.983 | > 10.2 µM | 0.987 | > 5 µM | – | – | 0.956 | > 10 µM
TALL-1 (T-cell lymphoblastic leukaemia, suspension) | 0.81 | 2.55 µM | 0.99 | > 10.2 µM | 0.99 | > 0.064 µM | 0.982 | > 5.12 µM | 0.814 | 2050 µM | 0.989 | > 10.2 µM | – | – | – | – | – | –
TE-441-T (rhabdomyosarcoma, adherent) | 0.854 | 3.78 µM | 0.859 | 7.99 µM | 0.806 | 0.031 µM | 0.982 | > 5.12 µM | – | – | 0.983 | > 10.2 µM | – | – | – | – | – | –
TGBC24TKB (biliary tract, adherent) | 0.818 | 2.65 µM | 0.989 | > 10.2 µM | 0.744 | 0.0189 µM | 0.889 | > 5.12 µM | 0.735 | 1110 µM | 0.969 | > 10.2 µM | 0.963 | > 5 µM | – | – | 0.95 | > 10 µM
THP-1 (acute myeloid leukaemia, suspension) | 0.985 | > 5.12 µM | 0.882 | 9 µM | – | – | – | – | – | – | 0.524 | 0.739 µM | – | – | 0.959 | > 2 µM | 0.942 | > 10 µM
U-87-MG (glioma, adherent) | 0.981 | > 5.12 µM | 0.917 | > 10.2 µM | 0.782 | 0.0319 µM | – | – | 0.839 | 3430 µM | 0.983 | > 10.2 µM | 0.984 | > 5 µM | 0.97 | > 2 µM | 0.921 | > 10 µM

IC50 is the fitted dose that halves viability relative to control wells, and lower means more sensitive; fits outside the tested doses are given as limits. AUC is the area under the same curve over the 256-fold range up to the top dose, as a fraction; it is 1 without any effect and falls as sensitivity rises. An inferred top dose was calculated from the reported fits.
